Assay results as given in PubChem BioAssay AID1794842 (National Center for Advancing Translational Sciences (NCATS), 2023).
Hit rate of the full screen: of about 2,800 compounds, fewer than 10 were called active. Calls come from the whole dose curve; as a rule, active = well fitted curve in the direction sought with a large enough effect; inconclusive = small, poorly fitted or top-dose-only effect, or another doubt; inactive = no such curve, though single readings can be large or run the other way. The list shows a part of the results.

target: Metallo-beta-lactamase type 2 (Klebsiella pneumoniae) (UniProt C7C422); experiment: qHTS to identify inhibitors of the New Delhi Metallo-beta-lactamase (NDM): Meropenem screen against the machine-based learning selections.; note: % of control where 0% means no effect; conditions: Purified NDM-1, meropenem hydrolysis, absorbance 300 nm; at 38.4 µM (top of the series) unless noted
From the text: Assay Submitter (PI): James Inglese Ph.D., Patricia Dranchak Ph.D., Mahesh Aitha Ph.D. Assay Development and Screening Technology Laboratory (ADST) National Center for Advancing Translational Sciences (NCATS), Rockville, MD National Institute of Health (NIH), Bethesda, Maryland The metallo-beta-lactamases (MBL) are a main antibiotic resistance mechanism evolved by bacteria. There is an urgent clinical need for MBL inhibitors to mitigate this growing threat. To support a machine-based learning study, qHTS has been used to experimentally test inhibitors identified by prediction tools.
PROTOCOL TABLE (as described by Inglese et al., 2007) SEQUENCE No. (e.g., 1, 2, 3, etc.); […] (e.g., enzyme, Incubation, Reagent, etc.); VALUE; DESCRIPTION Primary Screen 1; NDM-1; 4 uL of 3 nM enzyme [2 nM final] in 50 mM HEPES (pH 7.0), 1 uM […], 0.01% Tween20; Use BioRaptr to dispense into two sets of Aurora black, clear bottom high base 1536-well plates 2; Compounds; 23 nL; Use Pin Tool (Wako) to transfer DMSO control and library compounds in DMSO 3; Incubate; >30 min 4a; Reagent; 2 uL of 50 uM nitrocefin [16.7 uM final] to one set of assay plates 4b; Reagent; 2 uL of 150 uM meropenem [50 uM final] to second set of assay plates 5a; Incubate; 15 min 5b; Incubate; 30 min 6a; Detector; Absorbance at 485 nm (bandwidth = 5 nm, 25 flashes/well) on Tecan Infinity 6b; Detector; Absorbance at 300 nm (bandwidth = 5 nm, 25 flashes/well) on Tecan Infinity NOTES (numbers refer to sequence above) 1; Column 1 of each plate received assay buffer without enzyme and columns 2-48 received enzyme for a final assay concentration of 2 nM. 2; Control plate contained DMSO in columns 1, 2, 3, and 4. 3; Compound interaction with enzyme. 4; Nitrocefin and meropenem substrates were prepared in the same assay buffer as step 1 for a final assay concentration of 16.7 uM and 50 uM, respectively, and added to all wells across respective sets of assay plates. 5; Default reader settings were applied for absorbance read at 485 nm (nitrocefin) or 300 nm (meropenem), bandwidth = 5 nm, 25 flashes/well. References: Inglese J, Shamu CE, Guy RK. 2007. Reporting data from high-throughput screening of small-molecule libraries. Nat Chem Biol. doi:10.1038/nchembio0807-438 Yasgar A, Shinn P, Jadhav A, Auld D, Michael S, Zheng W, Austin CP, Inglese J, Simeonov A. 2008. Compound Management for Quantitative High-Throughput Screening. J Lab Autom 13:79 - 89. doi:10.1016/j.jala.2007.12.004

UniProt C7C422, sequence (C7C422 whole entry, looked up): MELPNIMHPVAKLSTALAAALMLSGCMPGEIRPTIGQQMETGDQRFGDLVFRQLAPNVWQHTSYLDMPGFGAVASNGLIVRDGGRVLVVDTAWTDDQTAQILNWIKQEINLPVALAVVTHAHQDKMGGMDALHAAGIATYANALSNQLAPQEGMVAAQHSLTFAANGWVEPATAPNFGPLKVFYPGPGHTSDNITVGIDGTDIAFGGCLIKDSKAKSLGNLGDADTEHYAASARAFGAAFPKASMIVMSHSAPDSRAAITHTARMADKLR

Activity change, negative = inhibition, inactive:
OC(c1cccc(C(F)(F)F)c1)c1nc(Nc2ccc3c(c2)OCO3)n[nH]1 (stereo not drawn) -0.987% [at 57.5 µM]
CC1(CCCCc2ccccc2)COc2ccc(C(=O)NC3CCC(O)CC3)cc2N1 (stereo not drawn) 1.11% [at 57.5 µM]
CC(=O)Nc1ccc(C2(C(=O)NCc3cccc(F)c3)CCC2)cc1 1.92%
Cc1ccccc1-c1cnc2[nH]cc(CC(=O)Nc3ccccc3)c2c1 3.19% [at 57.5 µM]
CC(=O)Nc1ccc(CN2CCC(N3CCCCCC3=O)CC2)cc1 0.422%
Cc1cc(-c2cnc3[nH]cc(CC(N)=O)c3c2)ccn1 10.9% [at 76.7 µM]
O=C(c1cccc(F)c1)N1CCC(Cc2nc(C3CCOCC3)no2)CC1 -2.06%
O=C(Cc1c[nH]c2ncc(-c3ccc(F)cc3)cc12)NCc1cccnc1 5.98% [at 57.5 µM]
CC(C)CC(=O)N1CCc2ccc(S(=O)(=O)N(C)Cc3nccs3)cc2C1 0.206%
O=C(c1ccccn1)N1CCCC2(C1)Nc1cccnc1NC2=NC1CCCC1 (stereo not drawn) 27.1%
CC(C)C(=O)N1CCC(Oc2cccnc2)C1 (stereo not drawn) 1.99%
O=C(C1CCCC1)N1CCOC[C@H](Oc2ccc(C(F)(F)F)cc2)C1 0.152% [at 57.5 µM]
CN(CCCNC1CCC2(CCNCC2)CC1)c1ccccc1 53.9%
CO[C@@H]1COCC[C@H]1NC(=O)CCCn1nnc(-c2ccc(F)cc2)n1 -0.65%
CN(CC1CCOCC1)S(=O)(=O)Cc1cccc(Cl)c1 -0.593%
CS(=O)(=O)N1CCCCCNC(=O)CC1c1ccccc1 (stereo not drawn) -4.34%
COc1ccc(C(=O)N[C@@H]2CN(C(=O)Nc3ccc(OC(F)(F)F)cc3)CCC[C@H]2O)cc1 1.33%
COCC(=O)N1CCc2nc(N(C)CCc3ccncc3)[nH]c(=O)c2CC1 1.22%
COCCNC(=O)CC[C@]12CC[C@](C)(O)C[C@H]1C(C)(C)C[C@@H]2NC(=O)CC(C)(C)C -2.32% [at 57.5 µM]
C[C@]1(O)CCN(C(=O)c2ccc3c(c2)CCCC3)C[C@@H]1O -1.99%
Cn1nc(C2CCN(C(=O)c3nccc4ccccc34)CC2)c2c1CCOC2 -0.253%
C#CCNC(=O)[C@H]1O[C@H](CCN2CCOCC2)CC[C@@H]1O 1.56% [at 57.5 µM]
COc1ccc2[nH]c(C[C@@H]3C[C@@H](C(C)C)[C@H](CNCc4ccccc4O)C=C3C)nc2n1 6.61% [at 57.5 µM]
Cc1nc(N2CCCCC2)ncc1C(=O)NC1CCOC2(CCOCC2)C1 (stereo not drawn) -3.14%
CN1C[C@H](C(=O)Nc2ccccc2)C[C@H]1c1cccc(C(F)(F)F)c1 -1.89% [at 57.5 µM]
Cc1ccc(-c2nc(CNC(=O)C3(N)CCC3)[nH]c2-c2ccccn2)cc1 57.8%
O=C(NC[C@H]1OC[C@@H](N(Cc2ccccc2F)Cc2ccccc2F)[C@@H]1O)c1ccccc1 -0.556%
CNC(=O)[C@@H]1C[C@H](n2cc(CNC(=O)Nc3ccc(C)c(Cl)c3)nn2)CN1 33.6%
O=C(Cc1c[nH]c2ncc(-c3cccnc3)cc12)Nc1ccc(C(F)(F)F)cc1 8.26% [at 57.5 µM]
O=C(NCCc1ccccn1)c1ccnc(-c2nnc3ccc(Nc4ccccc4)nn23)c1 -0.362% [at 57.5 µM]
COC(=O)[C@H](NC(=O)[C@@H]1C[C@@H](NC(=O)Nc2cccc(F)c2)CCN1C(=O)CCC(=O)O)C(C)C -2.12%
COc1ccc(CNC(=O)[C@H]2O[C@H](CCN3CCN(c4ccccc4OC)CC3)CC[C@@H]2O)cc1 -0.324%
OCCC1CCN(c2ccc(-c3nc(CCCc4ccccc4)no3)cn2)CC1 -0.77%
CC(C)NC(=O)N1CCC(O)(c2csc(CN3CC[C@@H](O)C3)n2)CC1 0.317% [at 57.5 µM]
CC(C)N1CCOC[C@H]1c1ncc(-c2ccc(F)cc2)[nH]1 -0.961% [at 76.7 µM]
COC(=O)CO[C@@H]1CO[C@H]2[C@@H]1OC[C@@H]2NC(=O)Nc1cccc(C(F)(F)F)c1 -0.0488% [at 57.5 µM]
O=c1c2nc(NCc3ccccc3)ccc2ncn1Cc1ccccn1 18.9% [at 57.5 µM]
Fc1ccc(-c2noc([C@@H]3Cc4nc[nH]c4CN3Cc3ccccc3)n2)cc1Cl 63.6% [at 57.5 µM]
CCO[C@H]1C[C@@H](O)C12CCN(C(=O)c1cc(S(N)(=O)=O)ccc1F)CC2 -0.14%
Cc1ccc(N2CCN(C(=O)C3CCCN(c4cnc5nccnc5c4)C3)CC2)cc1 (stereo not drawn) 4.5%
Cc1ccc(C2(O)CCN(C(=O)c3cccc(-c4ncc[nH]4)c3)CC2)nc1 0.432%
Cc1ccccc1Oc1ncccc1CNC(=O)CCn1cnnc1 0.535%
Cc1cc(CNC(=O)c2cc(-c3ccco3)nc3c(Cl)cccc23)no1 10.2%
Cc1cnccc1N1CCCN(C(=O)c2cccc(C3CCCNC3)c2)CC1 (stereo not drawn) -1.96%
CC(C)NC(=O)CN1CCN(c2nccc(N3CCC(O)CC3)n2)CC1 -0.548%
COc1ccc(C(=O)N2CCCC(c3nccn3CC3CCC3)C2)c(OC)n1 (stereo not drawn) 3.65%
Cc1cc(C)n(-c2ccc(NC(=O)C3CCN(Cc4nnc(C)o4)CC3)cc2)n1 -0.843%
CC(=O)NC(CO)C(=O)N1CCC(O)(c2ccc(C)cn2)CC1 (stereo not drawn) 3.38%
CC(=O)NC1(C)CCN(Cc2ccc(-c3cccc4ncccc34)cc2)C1 (stereo not drawn) 22.3% [at 57.5 µM]
CC(C)CN=C1S[C@H]2[C@H]([C@@H](O)[C@H](O)C[C@@H]2C(N)=O)N1Cc1ccc(F)cc1 1.98% [at 57.5 µM]
O=C(CC[C@@H]1CNC(=O)[C@@H]2C[C@H](NC(=O)Nc3cccc(Cl)c3)CN12)NCc1cccnc1 1.11%
COCc1cc(C[C@@H]2C[C@H](NC3CCN(C(C)=O)CC3)C2(C)C)no1 2.28% [at 57.5 µM]
CC(C)C[C@@H](NC(=O)C1=C[C@@H](NC(=O)CC(C)(C)C)[C@@H](O)[C@H](O)C1)C(N)=O -0.512% [at 57.5 µM]
O=C(O)C1(Oc2ccc3ccccc3c2)CCN(Cc2ccsc2)CC1 -0.232%
Cc1nc2cc(N3CCCC(C(=O)NCCN4CCCCCC4)C3)cnc2nc1C (stereo not drawn) 0.257%
COC(=O)CCNC(=O)C1c2ccccc2C(=O)N(Cc2ccco2)C12CCCCC2 (stereo not drawn) 0.9%
CCCN[C@H]1C[C@@H](Cc2cc(COc3ccccc3)on2)C1(C)C -1.41% [at 57.5 µM]
Cc1ccc(-c2nc(CNC(=O)[C@@H]3C[C@@H](O)CN3)[nH]c2-c2ccccn2)cc1 63%
CC(=O)Nc1ccc(CN2CCC3(CC2)CN[S+](=O)([O-])c2ccccc2N3)cc1 -0.407%
COc1ccc(CNC(=O)C[C@@H]2O[C@H](CNCc3cccc(Cl)c3)[C@@H](O)[C@H]2O)cc1 20.3% [at 57.5 µM]
C[C@@H](NC(=O)Nc1ccccc1)c1onc(-c2ccc(Cl)cc2)c1C(=O)O -0.362% [at 57.5 µM]
O=C(c1ccccc1OCC1CCCN(C(=O)c2n[nH]c3ccccc23)C1)N1CCOCC1 (stereo not drawn) 4.89%
CC(C)c1nc(C2Cc3ccccc3N2C(=O)NCc2ccco2)no1 (stereo not drawn) 10%
O=C(NCCc1csc(-c2ncccn2)n1)C1NCCc2[nH]cnc21 (stereo not drawn) 2.36%
Cc1noc2c(NC3CCC(O)CC3)cc(-c3ccc(F)cc3)nc12 (stereo not drawn) 11.6% [at 57.5 µM]
Cc1ccc(NC(=O)N2Cc3[nH]cnc3C[C@H]2c2nc(-c3ccc(Cl)cc3)no2)cc1 19.6% [at 57.5 µM]
c1ccc(CCN2CCNc3cc(Nc4ccc(N5CCOCC5)cc4)ncc3C2)cc1 6.63% [at 57.5 µM]
OCc1cccc(-c2ccc3ncc(Nc4cccc(F)c4)n3n2)c1 35.3% [at 57.5 µM]
COc1ccc(F)c(CN2CCCC(O)(CN(C)Cc3cc(C)on3)C2=O)c1 (stereo not drawn) 11.8%
C[C@@]1(O)CCN(C(=O)c2cc(C(F)(F)F)ccc2Cl)C[C@@H]1O 1.63%
CN(Cc1ccccc1)Cc1cc(C(=O)N(C)Cc2ccsc2)no1 -0.646%
COc1ccccc1C(O)c1nc(Nc2ccc(C(C)C)cc2)n[nH]1 (stereo not drawn) -1.07% [at 57.5 µM]
COC[C@H]1CCCN1Cc1nc(C2(O)CCN(C)CC2)cs1 1.03% [at 57.5 µM]
Cc1ccccc1-c1cnc2[nH]cc(CC(=O)Nc3cccnc3)c2c1 7.62% [at 57.5 µM]
Cc1n[nH]c(C)c1CN1C[C@@H](CO)[C@H](NC(=O)c2ccccc2)C1 0.992%
CC(=O)N1CCC(N2C[C@@H]3OCC(=O)N[C@@H]3C2)CC1 1.4% [at 76.7 µM]
O=C1CN(C(=O)[C@H]2CN(Cc3ccccc3)C[C@H]2C(=O)O)CCN1 50.1%
O=C(NCC1CCOCC1)c1cnc2n[nH]c(-c3ccccc3)c2n1 4.55% [at 57.5 µM]
